Experimental data from PubChem BioAssay (NCATS).
The list shows a part of the results. These are further read-outs of the screen, such as a control signal, another cell line or another target. No call is given for them. Compounds called inactive in the main read-out are mostly missing here. The note in brackets gives the kind of curve behind each potency; many fits are weak.

Experiment: qHTS Assay for Lipid Storage Modulators (AID 1519)
Conditions: Drosophila S3 cells, BODIPY lipid droplet/cell ratio, laser cytometry, cells loaded with oleic acid
Procedure, shortened: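 Cells seeded at 5,000 per well were treated with compounds over a concentration series and loaded with oleic acid (400 uM, as added). Lipid droplet fluorescence (488 nm excitation, 500-530 nm channel) was read by laser-scanning cytometry and normalized to 20 uM Triacsin C.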

[1] = measured here: cell count channel max response
[2] = measured here: cell number channel AC50
[3] = measured here: lipid (BODIPY) channel AC50
[4] = measured here: lipid channel max response
Tags describe the fitted curve by direction and shape.

O=C(c1cccc(F)c1)N1CCC2(CCCN(Cc3ccncc3)C2)CC1
max response [1]: 16.1% | AC50 [2]: 7.08 µM [rising, single point] | AC50 [3]: 7.08 µM [rising, single point] | max response [4]: 27.9%

CCNc1ncc2nc(-c3cccs3)c(=O)n(Cc3cccs3)c2n1
max response [1]: 43.5% | AC50 [2]: 5.01 µM [rising, partial curve] | AC50 [3]: 39.8 µM [falling, single point] | max response [4]: -30.9%

NC(=O)C(=O)O
max response [1]: 33.6% | AC50 [2]: 7.08 µM [falling, partial curve, poor fit] | AC50 [3]: 7.08 µM [falling, partial curve, poor fit] | max response [4]: 34.2%

CSCCC(N)C(=O)NC(CC(C)C)C(=O)NC(Cc1ccccc1)C(=O)O (configuration not stated)
max response [1]: 30.3% | AC50 [2]: 11.2 µM [rising, partial curve, poor fit] | AC50 [3]: 6.31 µM [rising, partial curve] | max response [4]: 39.9%

Clc1ccccc1-c1cc(NCc2cccnc2)ncn1
max response [1]: 28.4% | AC50 [2]: 3.55 µM [rising, full curve, poor fit] | AC50 [3]: 3.55 µM [rising, full curve] | max response [4]: 41%

CN(Cc1ccco1)c1cc(-c2cccc(NS(C)(=O)=O)c2)ncn1
max response [1]: 31.2% | AC50 [2]: 1.78 µM [rising, full curve, poor fit] | AC50 [3]: 2 µM [rising, full curve] | max response [4]: 40.2%

CCOC(=O)[C@@]12C[C@@H]1/C(=N/O)c1ccccc1O2
max response [1]: 92% | AC50 [2]: 15.8 µM [rising, partial curve, poor fit] | AC50 [3]: 14.1 µM [rising, partial curve, poor fit] | max response [4]: 122%

c1nc(N2CCOCC2)c2cc(-c3ccoc3)ccc2n1
max response [1]: 36.2% | AC50 [2]: 11.2 µM [rising, partial curve] | AC50 [3]: 10 µM [rising, partial curve] | max response [4]: 30.8%

COc1cc(-c2cc(=O)c3ccccc3o2)ccc1O
max response [1]: 78.1% | AC50 [2]: 14.1 µM [rising, partial curve] | AC50 [3]: 17.8 µM [rising, partial curve] | max response [4]: 113%

NC(=O)c1ccc[n+]([C@@H]2OC(COP(=O)([O-])OP(=O)(O)OCC3OC(n4cnc5c(N)ncnc54)C(O)C3O)C(O)C2O)c1 (some centres not stated)
max response [1]: 43.2% | AC50 [2]: 14.1 µM [rising, partial curve, poor fit] | AC50 [3]: 20 µM [rising, partial curve, poor fit] | max response [4]: 71.6%

O=C(O)c1cc(=O)cc(C(=O)O)[nH]1
max response [1]: 31.8% | AC50 [2]: 39.8 µM [rising, single point] | AC50 [3]: 44.7 µM [rising, single point] | max response [4]: 30.3%

C[C@@]1(C(=O)O)NCCc2cc(O)c(O)cc21
max response [1]: 39.5% | AC50 [2]: 6.31 µM [rising, full curve, poor fit] | AC50 [3]: 11.2 µM [rising, partial curve, poor fit] | max response [4]: 51.6%

Cc1ccc(C(=O)[C@@H]2[C@H]3C4COC(O4)C(=O)[C@@H]3[C@H]3C=Cc4ccccc4N32)cc1 (some centres not stated)
max response [1]: 73.5% | AC50 [2]: 12.6 µM [rising, partial curve] | AC50 [3]: 14.1 µM [rising, partial curve] | max response [4]: 95.7%

COc1ccc(C(=O)N2CCC[C@@]3(CCN(c4ccccc4)C3)C2)cc1
max response [1]: 16.5% | AC50 [2]: 0.0891 µM [rising, full curve, poor fit] | AC50 [3]: 0.0501 µM [rising, full curve] | max response [4]: -4.14%

COc1ccc2[nH]cc(CCNc3cc(-c4ccc5c(c4)OCO5)ncn3)c2c1
max response [1]: 4.58% | AC50 [2]: 0.0126 µM [rising, full curve, poor fit] | AC50 [3]: 0.0158 µM [rising, full curve, poor fit] | max response [4]: 7.75%

Cn1cc(-c2nc3cnc(N4CCNCC4)nc3n(-c3ccccc3)c2=O)c2ccccc21
max response [1]: 32.5% | AC50 [2]: 14.1 µM [rising, partial curve] | AC50 [3]: 14.1 µM [rising, partial curve] | max response [4]: 41%

COCCn1c(=O)c(C)nc2cnc(OCc3ccccc3)nc21
max response [1]: 35.6% | AC50 [2]: 1.58 µM [rising, full curve] | AC50 [3]: 1.26 µM [rising, full curve] | max response [4]: 49%

O=c1[nH]c2cc(Cl)ccc2c(O)c1-c1cccc(Oc2ccccc2)c1
max response [1]: 71% | AC50 [2]: 31.6 µM [rising, partial curve, poor fit] | AC50 [3]: 31.6 µM [rising, partial curve] | max response [4]: 95.8%
